Source: the supplement of paper PMC6531468
This is one part of the list. These are enrichments in a pooled selection; single values are uncertain. Scores sum up all selected molecules that hold the word; the word was not tested alone.

Tests used:
Experiment in all cases: 6-mer SELEX enrichment z-score vs GST control; IMP3 is the RNA-binding protein IGF2BP3; higher = more enriched by binding
[1] = system: IMP3 KH1-4; conditions: construct: KH1-4 (164-579); SELEX round: R4
Experimental: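 SELEX-seq with GST-tagged IMP3 KH1-4 (Pro164-Lys579) and an N40 RNA pool, round 4. 6-mer z-score of sequence-tag enrichment normalised to the corresponding GST SELEX round; RNA k-mers written as DNA (T for U).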

[2] = system: IMP3 RRM1-2; conditions: construct: RRM1-2 (1-163); SELEX round: R2
Experimental: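 SELEX-seq with GST-tagged IMP3 RRM1-2 (Met1-Asn163) and an N40 RNA pool, round 2. 6-mer enrichment z-score normalised to GST SELEX. RNA written as DNA (T = U).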

[3] = system: IMP3 KH1-2; conditions: construct: KH1-2 (164-376); SELEX round: R4
Experimental: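 SELEX-seq with GST-tagged IMP3 KH1-2 (Pro164-Phe376) and an N40 RNA pool, round 4 (stringent 300/600 mM KCl washes). 6-mer z-score of sequence-tag enrichment normalised to the corresponding GST SELEX round; RNA k-mers written as DNA (T for U).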

[4] = system: IMP3 KH3-4; conditions: construct: KH3-4 (377-579); SELEX round: R4
Experimental: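 SELEX-seq with GST-tagged IMP3 KH3-4 (Pro377-Lys579) and an N40 RNA pool, round 4. 6-mer z-score of sequence-tag enrichment normalised to the corresponding GST SELEX round; RNA k-mers written as DNA (T for U).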

IMP3 KH1-2, sequence (chain, as listed by the source): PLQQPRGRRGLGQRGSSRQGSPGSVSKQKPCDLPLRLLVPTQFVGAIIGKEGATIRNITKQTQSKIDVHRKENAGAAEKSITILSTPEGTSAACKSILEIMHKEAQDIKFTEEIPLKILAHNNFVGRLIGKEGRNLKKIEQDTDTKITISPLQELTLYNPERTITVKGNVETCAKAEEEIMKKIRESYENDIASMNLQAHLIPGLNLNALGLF
IMP3 KH3-4, sequence (chain, as listed by the source): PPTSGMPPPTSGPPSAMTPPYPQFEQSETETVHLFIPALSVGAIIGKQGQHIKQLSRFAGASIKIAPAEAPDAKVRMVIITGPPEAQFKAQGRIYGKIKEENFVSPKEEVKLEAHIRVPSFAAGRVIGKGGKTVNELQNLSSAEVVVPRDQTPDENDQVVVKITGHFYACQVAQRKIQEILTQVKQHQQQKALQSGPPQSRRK
IMP3 RRM1-2, sequence (chain, as listed by the source): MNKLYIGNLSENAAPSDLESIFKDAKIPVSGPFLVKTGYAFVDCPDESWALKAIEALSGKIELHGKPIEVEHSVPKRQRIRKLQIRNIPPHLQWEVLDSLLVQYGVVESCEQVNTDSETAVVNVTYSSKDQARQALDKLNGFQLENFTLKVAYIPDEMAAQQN
IMP3 KH1-4, sequence (chain, as listed by the source): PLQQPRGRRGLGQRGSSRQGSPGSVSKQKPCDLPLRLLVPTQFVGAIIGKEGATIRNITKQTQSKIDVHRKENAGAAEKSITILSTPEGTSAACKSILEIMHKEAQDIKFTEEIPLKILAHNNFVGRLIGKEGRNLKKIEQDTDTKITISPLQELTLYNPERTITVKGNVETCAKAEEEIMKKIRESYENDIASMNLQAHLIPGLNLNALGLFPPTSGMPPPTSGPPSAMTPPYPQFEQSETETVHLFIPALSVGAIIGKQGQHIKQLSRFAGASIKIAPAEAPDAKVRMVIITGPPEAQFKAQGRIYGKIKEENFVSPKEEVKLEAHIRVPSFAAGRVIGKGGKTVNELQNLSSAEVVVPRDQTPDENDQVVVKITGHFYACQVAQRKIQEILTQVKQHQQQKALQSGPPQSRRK

| Sequence | 6-mer SELEX enrichment z-score [1] | 6-mer SELEX enrichment z-score [2] | 6-mer SELEX enrichment z-score [3] | 6-mer SELEX enrichment z-score [4] |
| --- | --- | --- | --- | --- |
| TCCGCG | -0.953 | -0.011 | -0.748 | -0.926 |
| GGGATA | 0.524 | -0.185 | 0.512 | 0.768 |
| GGTTGG | 0.182 | 0.418 | 0.377 | 0.371 |
| ATGAAC | 1.14 | -0.951 | 0.968 | 1.36 |
| GGCCGA | -0.285 | -0.527 | -0.045 | 0.045 |
| AGATGC | -0.123 | -0.48 | -0.112 | 0.089 |
| AGTTGG | 0.132 | 0.397 | 0.182 | 0.217 |
| GGTAAC | -0.609 | -0.063 | -0.556 | -0.515 |
| GTTTGT | 0.078 | 0.358 | 0.031 | 0.264 |
| CTAGAT | 0.278 | -0.171 | 0.169 | 0.421 |
| TCGCTT | 0.278 | 0.344 | 0.307 | 0.333 |
| GTTAAG | -0.238 | -0.064 | -0.241 | 0.018 |
| CGAAAC | -2.27 | -1.44 | -2 | -2.26 |
| TCGTAG | -0.668 | 0.29 | -0.581 | -0.474 |
| CAACTT | 0.31 | 0.1 | 0.285 | 0.026 |
| GTGGGT | 0.091 | 0.42 | 0.258 | 0.314 |
| CGTCCC | -0.95 | -0.33 | -0.858 | -1.25 |
| CATGCC | -0.281 | 0.23 | -0.208 | -0.845 |
| TGCGAT | -0.095 | -0.231 | -0.137 | 0.015 |
| GGCAGA | 0.602 | 0.12 | 0.46 | 0.69 |
| TTTCCG | 0.445 | 0.016 | 0.616 | 0.18 |
| GCTGGC | 0.453 | 0.179 | 0.465 | 0.327 |
| TAACGC | 0.099 | -0.314 | 0.126 | 0.033 |
| AGATAA | 1.44 | -0.972 | 1.22 | 2.3 |
